# The list shows a part of the results. Values come from read counts of a selection and are noisy. Each score is taken over the longer molecules that contain the sequence shown.
# Key:
# Test in all cases: 6-mer SELEX enrichment z-score vs GST control; IMP3 is the RNA-binding protein IGF2BP3; higher = more enriched by binding
# [1] = tested on: IMP3 KH1-4; conditions: construct: KH1-4 (164-579); SELEX round: R4
# Description: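 SELEX-seq with GST-tagged IMP3 KH1-4 (Pro164-Lys579) and an N40 RNA pool, round 4. 6-mer z-score of sequence-tag enrichment normalised to the corresponding GST SELEX round; RNA k-mers written as DNA (T for U).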
# [2] = tested on: IMP3 RRM1-2; conditions: construct: RRM1-2 (1-163); SELEX round: R2
# Sequence of IMP3 RRM1-2 (chain, as listed by the source): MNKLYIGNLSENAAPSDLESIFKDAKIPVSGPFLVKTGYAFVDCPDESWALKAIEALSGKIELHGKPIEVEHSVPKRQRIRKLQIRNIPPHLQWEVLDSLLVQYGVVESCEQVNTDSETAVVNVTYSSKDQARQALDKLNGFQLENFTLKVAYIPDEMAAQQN
# Description: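 SELEX-seq with GST-tagged IMP3 RRM1-2 (Met1-Asn163) and an N40 RNA pool, round 2. 6-mer enrichment z-score normalised to GST SELEX. RNA written as DNA (T = U).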
# [3] = molecular target: IMP3 full-length (UniProt O00425); conditions: construct: FL IMP3 (1-579); SELEX round: R4
# Sequence of UniProt O00425 (O00425 whole entry): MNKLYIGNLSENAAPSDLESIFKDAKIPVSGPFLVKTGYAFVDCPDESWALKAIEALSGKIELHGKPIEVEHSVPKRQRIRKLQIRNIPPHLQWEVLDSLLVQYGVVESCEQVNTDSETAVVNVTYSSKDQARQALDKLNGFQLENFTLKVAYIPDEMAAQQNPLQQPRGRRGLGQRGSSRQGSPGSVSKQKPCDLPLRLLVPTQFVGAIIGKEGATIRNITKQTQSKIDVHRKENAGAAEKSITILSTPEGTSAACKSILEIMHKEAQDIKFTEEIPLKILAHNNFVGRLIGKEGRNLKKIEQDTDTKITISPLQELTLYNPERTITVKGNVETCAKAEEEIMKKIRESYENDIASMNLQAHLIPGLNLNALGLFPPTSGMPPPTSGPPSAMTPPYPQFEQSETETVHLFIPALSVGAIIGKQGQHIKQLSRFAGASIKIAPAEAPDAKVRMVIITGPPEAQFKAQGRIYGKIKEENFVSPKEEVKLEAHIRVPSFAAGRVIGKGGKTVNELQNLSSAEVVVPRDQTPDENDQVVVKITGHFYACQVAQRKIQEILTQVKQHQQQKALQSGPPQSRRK
# Description: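 SELEX-seq with GST-tagged full-length IMP3 and an N40 RNA pool, round 4. Each 6-mer is scored as an enrichment z-score of sequence tags containing it, normalised to the matching GST SELEX round. RNA written as DNA (T = U).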
# [4] = tested on: IMP3 KH1-2; conditions: construct: KH1-2 (164-376); SELEX round: R4
# Sequence of IMP3 KH1-2 (chain, as listed by the source): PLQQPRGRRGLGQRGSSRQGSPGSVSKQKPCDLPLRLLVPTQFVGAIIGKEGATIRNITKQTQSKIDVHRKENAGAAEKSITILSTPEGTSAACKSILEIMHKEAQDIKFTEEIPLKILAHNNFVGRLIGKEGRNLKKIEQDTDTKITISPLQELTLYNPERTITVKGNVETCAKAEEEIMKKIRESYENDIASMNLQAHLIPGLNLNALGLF
# Description: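 SELEX-seq with GST-tagged IMP3 KH1-2 (Pro164-Phe376) and an N40 RNA pool, round 4 (stringent 300/600 mM KCl washes). 6-mer z-score of sequence-tag enrichment normalised to the corresponding GST SELEX round; RNA k-mers written as DNA (T for U).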
# [5] = tested on: IMP3 KH3-4; conditions: construct: KH3-4 (377-579); SELEX round: R4
# Sequence of IMP3 KH3-4 (chain, as listed by the source): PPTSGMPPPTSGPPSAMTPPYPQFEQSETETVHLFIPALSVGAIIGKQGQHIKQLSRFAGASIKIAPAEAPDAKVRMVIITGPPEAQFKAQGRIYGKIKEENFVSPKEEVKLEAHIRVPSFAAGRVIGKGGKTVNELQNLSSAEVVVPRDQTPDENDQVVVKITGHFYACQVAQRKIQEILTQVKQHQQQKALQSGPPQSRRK
# Description: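 SELEX-seq with GST-tagged IMP3 KH3-4 (Pro377-Lys579) and an N40 RNA pool, round 4. 6-mer z-score of sequence-tag enrichment normalised to the corresponding GST SELEX round; RNA k-mers written as DNA (T for U).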
# Sequence of IMP3 KH1-4 (chain, as listed by the source): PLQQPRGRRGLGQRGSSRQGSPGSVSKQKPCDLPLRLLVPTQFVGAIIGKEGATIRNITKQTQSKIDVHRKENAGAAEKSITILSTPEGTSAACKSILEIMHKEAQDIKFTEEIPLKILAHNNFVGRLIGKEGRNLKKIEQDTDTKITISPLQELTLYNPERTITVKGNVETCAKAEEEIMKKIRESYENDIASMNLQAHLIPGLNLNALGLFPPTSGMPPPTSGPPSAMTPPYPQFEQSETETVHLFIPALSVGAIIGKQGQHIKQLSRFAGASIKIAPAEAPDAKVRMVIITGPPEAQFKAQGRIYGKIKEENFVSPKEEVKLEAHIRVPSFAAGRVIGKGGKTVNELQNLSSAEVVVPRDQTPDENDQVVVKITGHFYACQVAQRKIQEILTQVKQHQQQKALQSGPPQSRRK
Sequence,6-mer SELEX enrichment z-score [1],6-mer SELEX enrichment z-score [2],6-mer SELEX enrichment z-score [3],6-mer SELEX enrichment z-score [4],6-mer SELEX enrichment z-score [5]
CTGTCT,-0.045,0.297,0.111,-0.014,-0.037
CGGCGT,-0.736,0.301,0.39,-0.617,-0.457
ATGTCG,0.34,0.333,0.518,0.125,0.369
GAGTCC,-0.141,-0.417,0.114,-0.156,-0.375
GAGATA,0.419,-0.757,-0.274,0.296,0.8
CTCTCA,0.081,0.729,0.296,0.174,-0.215
TTTTAG,0.487,0.281,0.157,0.439,0.871
AAGTAA,0.384,-1,-0.643,0.118,0.93
AGCAAA,-0.884,-0.08,-0.329,-0.722,-0.698
CTTAAT,0.975,-0.023,0.035,0.836,1.17
CCACGA,-1.72,-0.395,-1.22,-1.68,-2.01
ACGGAG,-0.126,-0.766,-0.058,-0.237,-0.093
CACGTT,-0.056,0.22,0.151,-0.211,-0.232
CGCCGC,0.152,-0.128,0.592,0.431,-0.396
CGTCCA,-0.338,0.084,0.428,-0.307,-0.68
TGTGGG,0.42,0.297,0.245,0.485,0.605
TACAAT,1.6,0.654,0.99,1.74,1.79
TGCACA,1.85,1.1,1.5,1.67,1.03
TCTTTC,0.749,0.59,0.402,0.68,0.513
TTTAAA,0.903,-0.477,-0.411,0.832,1.94
ACGTGT,-0.211,-0.266,-0.234,-0.348,-0.212
TGACAA,0.489,-0.739,-0.207,0.308,0.454
TGCGGG,0.125,-0.016,0.32,0.301,0.345
GTTTAT,0.417,0.292,0.114,0.399,0.722
GGGTCT,-0.127,0.441,0.28,0.074,0.179

Sequence,6-mer SELEX enrichment z-score [1],6-mer SELEX enrichment z-score [2],6-mer SELEX enrichment z-score [3],6-mer SELEX enrichment z-score [4],6-mer SELEX enrichment z-score [5]
CTATCG,-0.18,0.124,-0.14,-0.205,-0.229
TTCTAT,0.885,0.508,0.293,0.89,1.07
CAACCC,-2.01,-0.567,-1.81,-2.01,-2.99
AATCAC,0.974,3.13,1.82,1.06,0.603
GTCGTG,0.013,0.282,0.224,-0.013,0.153
GTTGAT,-0.048,0.055,-0.228,-0.079,0.097
GCTCGA,-1.11,0.165,-0.276,-0.886,-0.796
AGTCCA,0.623,0.023,0.353,0.326,0.115
GTCCCC,0.01,-0.297,-0.014,0.071,-0.863
CCGAGC,-3.68,-0.277,-0.35,-3.32,-3.27
GGCGCC,-0.601,0.186,0.72,-0.338,-0.496
GGACGC,-0.239,-0.29,0.124,-0.174,-0.318
CAACTC,-0.809,0.581,-0.122,-0.592,-1.23
TGCAGA,0.332,-0.011,0.27,0.306,0.252
ATAAAT,1.97,-0.598,0.1,1.9,3.01
AAGCGT,-3.68,-0.527,-2.36,-3.44,-3.22
GACCAT,0.182,0.787,0.055,0.044,-0.114
ACATAC,2,2.1,2.19,2.53,1.6
ATAAGT,0.801,-0.11,0.109,0.523,1.09
CGCCCT,-0.552,-0.295,-0.45,-0.431,-0.793
TAATAA,1.67,-0.773,-0.167,1.64,2.93
CCTACA,-0.191,0.459,-0.198,-0.068,-0.678
AGTCGC,1.23,0.222,0.78,0.881,0.56
CCCATG,-0.531,-0.575,-0.601,-0.533,-0.939
CTGTCG,-0.033,0.212,0.311,-0.011,-0.075
